Results reported in PubChem BioAssay AID1030 (National Center for Advancing Translational Sciences (NCATS), 2008).
About 16,000 (7.3%) of roughly 220,000 compounds were called active. Inconclusive means that the source gave no clear call. Such entries were picked first, then a sample of the others. The call rests on the fitted dose curve; in most records, active means well fitted inhibition curve with a large enough effect (not every such curve was filed as active); inconclusive means small, poorly fitted or top-dose-only effect, or another doubt; inactive means no such curve, though single readings can be large or run the other way. Potencies of inconclusive entries are left out as doubtful fits.

target: Aldehyde dehydrogenase 1A1 (Homo sapiens) (UniProt P00352); test: qHTS Assay for Inhibitors of Aldehyde Dehydrogenase 1 (ALDH1A1); details: Purified ALDH1A1, NADH fluorescence, propionaldehyde substrate; series mostly up to 75.3 µM; activity, negative = inhibition: at the top concentration;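 on activity, negative = inhibition: plate controls were no enzyme wells and a reference inhibitor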
UniProt P00352, sequence (P00352 whole entry, looked up): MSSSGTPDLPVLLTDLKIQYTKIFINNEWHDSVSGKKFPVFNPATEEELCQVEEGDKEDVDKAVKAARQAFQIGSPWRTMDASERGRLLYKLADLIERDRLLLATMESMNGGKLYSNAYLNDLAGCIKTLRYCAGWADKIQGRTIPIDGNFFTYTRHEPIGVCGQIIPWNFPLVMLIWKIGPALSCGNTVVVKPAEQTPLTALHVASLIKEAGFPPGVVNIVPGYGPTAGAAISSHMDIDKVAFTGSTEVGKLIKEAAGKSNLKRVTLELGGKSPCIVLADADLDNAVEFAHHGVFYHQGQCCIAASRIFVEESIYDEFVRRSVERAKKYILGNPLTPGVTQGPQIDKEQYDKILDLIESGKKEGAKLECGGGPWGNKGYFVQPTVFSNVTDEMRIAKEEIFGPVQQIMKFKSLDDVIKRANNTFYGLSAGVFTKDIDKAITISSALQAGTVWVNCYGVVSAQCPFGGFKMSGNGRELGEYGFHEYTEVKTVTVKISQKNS
Potency means the concentration at half of the fitted maximal effect; tags describe the fitted curve by direction and shape.

| Structure (SMILES) | activity, negative = inhibition | Potency |
| --- | --- | --- |
| COc1ccc(C(O)c2nccc3cc(OC)c(OC)cc23)cc1OC (stereo not given) | inactive: 7.74% | – |
| COc1cccc2c(=O)c(C(=O)O)c[nH]c12 | – | inconclusive [inhibitor, partial curve] |
| CC(=O)NC1C(=O)N=C(SCC(=O)Nc2sc3c(c2C#N)CCCCCC3)NC1=O (stereo not given) | – | active: 39.8 µM |
| N#CC1=C(N)SC(N)=C(C#N)C1c1ccc(C(F)(F)F)cc1 | – | active: 25.1 µM |
| Cc1cc(C)cc(NC(=O)CN2CCC(NC(=O)Cc3ccccc3)CC2)c1 | inactive: 13.6% | – |
| COc1ccccc1NC(=O)CN(Cc1ccccc1)S(C)(=O)=O | – | inconclusive [inhibitor, single point] |
| Cc1nc2cnc(N(C)C)nc2n(C)c1=O | – | inconclusive [inhibitor, partial curve] |
| C=CCc1cc(C)ccc1OCC(O)CN1CCN(c2ccccc2)CC1 (stereo not given) | – | inconclusive [inhibitor, single point] |
| Cc1ccc(CSCC(=O)Nc2ccc(F)cc2)cc1 | inactive: -8.06% | – |
| COc1ccc(-c2[nH]ncc2CN2C[C@@H]3CCC[C@H]2C3)c(F)c1 | – | inconclusive [inhibitor, single point] |
| O=C(NCc1cccs1)c1ccc(N2CCCC2=O)cc1 | inactive: 1.73% | – |
| Nc1nc(CN2CCN(c3ccccc3)CC2)nc(Nc2ccc(Cl)cc2)n1 | inactive: 2.12% | – |
| C=CCOC(=O)CSCC(NC(=O)OC(C)(C)C)C(=O)OCC (stereo not given) | inactive: -0.46% | – |
| N/C(=N\OS(=O)(=O)c1ccccc1)c1ccncc1 | inactive: 2.46% | – |
| Cc1ccc(S(=O)(=O)NCc2ccc3[nH]c(C)cc3c2)cc1 | – | inconclusive [inhibitor, single point] |
| Cc1ccccc1-c1coc2cc(O)ccc2c1=O | – | inconclusive [inhibitor, partial curve] |
| O=c1cc(O)c2c(=O)n(Cc3ccccc3)c3ccccc3c2o1 | – | inconclusive [inhibitor, partial curve] |
| CCCC(NC(=S)NCC1CCCO1)C12CC3CC(CC(C3)C1)C2 (stereo not given) | – | inconclusive [inhibitor, partial curve] |
| COc1ccc2cc(C(=O)CCC(=O)O)ccc2c1 | – | inconclusive [inhibitor, single point] |
| C=CCSc1nnc(CSc2nc3sc4c(c3c(=O)[nH]2)CCCC4)n1-c1ccccc1 | – | inconclusive [inhibitor, partial curve] |
| O=C(Nc1cccc(O)c1)c1ccc(C(=O)c2ccccc2)o1 | – | inconclusive [inhibitor, single point] |
| COC(=O)Cc1cc(=O)n(-c2ccccc2)[nH]1 | inactive: -0.348% | – |
| CNc1nc(C)cc(C)c1S(=O)(=O)c1ccc(C)cc1 | – | inconclusive [inhibitor, single point] |
| COC(=O)CSc1nnc(CNC(=O)c2cc(OC)cc(OC)c2)n1-c1ccc(F)cc1 | inactive: 2.75% | – |
| CCc1ccc(N2C(=O)CC(c3ccc(F)cc3)C3=C2COC3=O)cc1 (stereo not given) | – | inconclusive [inhibitor, single point] |

| Structure (SMILES) | activity, negative = inhibition | Potency |
| --- | --- | --- |
| CN(C(=O)COC(=O)c1cc([N+](=O)[O-])ccc1Sc1ccccc1)C1CCS(=O)(=O)C1 (stereo not given) | – | inconclusive [inhibitor, single point] |
| CCOC(=O)c1c(C)[nH]c(C(=O)COC(=O)CCC(=O)c2ccc3c(c2)OCCO3)c1C | – | inconclusive [inhibitor, single point] |
| O=C(CCN1C(=O)c2ccccc2C1=O)Nc1cccc(F)c1 | inactive: 6.38% | – |
| CCC1Oc2ccc(C)cc2N(CC(=O)NCc2cccc(OC)c2)C1=O (stereo not given) | – | inconclusive [inhibitor, single point] |
| CC1CCN(C(=O)c2cc3nc(-c4ccccc4)cc(-c4ccccc4)n3n2)CC1 | – | inconclusive [inhibitor, single point] |
| CCn1c(C)nc2cc(C(=O)N/N=C/c3ccc(O)c(O)c3O)ccc21 | – | active: 1.41 µM |
| O=C(OCCN=C1NS(=O)(=O)c2ccccc21)c1cccs1 | – | inconclusive [inhibitor, single point] |
| COc1ccc(Oc2ncc3nc(C)c(=O)n(CCc4ccccc4)c3n2)cc1 | – | active: 0.224 µM |
| N#Cc1c(N2CCN(C(=O)c3ccco3)CC2)nc(-c2ccccc2)c2c1CCCC2 | – | inconclusive [inhibitor, partial curve] |
| O=C(CCC1CCCN(C(=O)Cc2cccc(F)c2)C1)N1CCN(c2ccccn2)CC1 (stereo not given) | inactive: -8.74% | – |
| CCOC(=O)CNc1ccc(OC(F)(F)F)cc1 | inactive: 7.63% | – |
| C=CCOc1cccc(CNn2cn[nH]c2=S)c1 | – | inconclusive [inhibitor, single point] |
| COc1ccc2[nH]cc(CCNc3ncncc3-c3ccccc3C)c2c1 | – | inconclusive [inhibitor, single point] |
| CCCCNC(=O)CCC(=O)Nc1ccc2nc(N3CCC(C)CC3)cc(C)c2c1 | – | inconclusive [inhibitor, single point] |
| CCCCNc1oc(-c2ccc(OC)cc2)nc1S(=O)(=O)c1ccccc1 | – | active: 22.4 µM |
| CCc1cc(C(=O)O)c(NC(=O)c2cc(OC)c(OC)c(OC)c2)s1 | – | inconclusive [inhibitor, single point] |
| O=C(/C=C/c1ccccc1)NCCc1ccc2c(c1)OCCO2 | inactive: 4.08% | – |
| COc1ccc(C(=O)N2CCCC(CCC(=O)NCc3ccc(F)c(F)c3)C2)cc1F (stereo not given) | inactive: -5.68% | – |
| Cn1c(SCC(=O)N2CCCCC2)nnc1-c1ccc(S(=O)(=O)N2CCOCC2)cc1 | – | inconclusive [inhibitor, single point] |
| Cn1c(=O)oc2ccc(C(=O)CSc3nnnn3-c3ccccc3)cc21 | – | inconclusive [inhibitor, partial curve] |
| CCN(CC)S(=O)(=O)c1cccc(NC(=O)c2ccc(C#N)cc2)c1 | inactive: -3.87% | – |
| O=C(NC1CCCCC1)C(c1ccc2ncccc2c1)N(Cc1ccco1)C(=O)c1ccc2c(c1)OCCO2 (stereo not given) | – | inconclusive [inhibitor, single point] |
| Cc1cc(Br)cnc1NC(=S)Nc1ccc(F)cc1F | – | inconclusive [inhibitor, full curve, poor fit] |
| Cc1ccccc1C(=O)NC1CCN(CC(=O)Nc2c(C)cccc2C)CC1 | – | inconclusive [inhibitor, single point] |
| COCCCn1c(=NC(=O)c2ccccc2)c(C#N)cc2c(=O)n3cccc(C)c3nc21 | – | inconclusive [inhibitor, partial curve] |

| Structure (SMILES) | activity, negative = inhibition | Potency |
| --- | --- | --- |
| CSc1ccccc1C(=O)N1CCN(c2ccc(F)cc2)CC1 | inactive: 4.75% | – |
| COc1ccc(/C=N/Nc2ccc([N+](=O)[O-])cc2)cc1Cn1cc([N+](=O)[O-])cn1 | – | inconclusive [inhibitor, partial curve] |
| COC(=O)CNC(=O)CN1C(=O)N(c2cccc(Cl)c2)C(N(O)C(=O)Nc2cccc(Cl)c2)C1(C)C (stereo not given) | – | inconclusive [inhibitor, single point] |
| CCCCC(=O)Nc1ccnc(-c2cccnc2)n1 | inactive: -2.88% | – |
| O=C(NCc1ccco1)Nc1cccs1 | – | active: 28.2 µM |
| O=C(c1cnn(C(=O)COc2ccc(Cl)cc2)c1)c1ccccc1O | – | active: 4.47 µM |
| CC(Sc1nc2ccccc2s1)C(=O)Nc1ccc2c(c1)OCO2 (stereo not given) | – | inconclusive [inhibitor, single point] |
| O=C1CCCCC2CCCCN12 (stereo not given) | inactive: -8.23% [at 120 µM] | – |
| CCOC(=O)c1ccc(S(=O)(=O)NCCN2CCOCC2)cc1 | – | inconclusive [inhibitor, single point] |
| NC(=O)CSc1nc(-c2ccccc2)c(-c2ccccc2)o1 | inactive: -1.14% | – |
| S=c1[nH]ncn1/N=C/c1cccc(Oc2ccccc2)c1 | – | active: 17.8 µM |
| O=C1N2CCSC2=NC1(NS(=O)(=O)c1ccccc1)C(F)(F)F (stereo not given) | inactive: 10.9% | – |
| Cc1ccc(CNC(=O)CNC(=S)N(Cc2ccccc2)Cc2ccccc2F)cc1 | – | inconclusive [inhibitor, partial curve] |
| COc1cccc2c(=O)n(CC(=O)Nc3cccc(F)c3)ccc12 | – | inconclusive [inhibitor, partial curve] |
| Cc1cc2nnc(SCC(=O)OC(C)C)n2c2ccccc12 | – | inconclusive [inhibitor, single point] |
| O=C1N2CCCc3cccc(c32)C12Nc1ccccc1S2 (stereo not given) | – | active: 14.1 µM |
| CC1(C)CC(=O)C(C=Nc2ccc3cn[nH]c3c2)=C(O)C1 | – | active: 14.1 µM |
| O=C1c2ccccc2C(=O)N1CCc1csc(-c2ccc(F)cc2)n1 | – | inconclusive [inhibitor, single point] |
| CNS(=O)(=O)c1ccc(N=Cc2c(C)[nH]n(-c3ccc(C)cc3C)c2=O)cc1 | inactive: 3.64% | – |
| CCC(C)(C)n1nnnc1C(c1cc2cc3c(cc2[nH]c1=O)OCO3)N1CCCCC1 (stereo not given) | – | inconclusive [inhibitor, partial curve] |
| CCOc1nc2ccccc2cc1C=O | – | inconclusive [inhibitor, single point] |
| S=C(Nc1ccc(Cl)cc1Cl)NC1CCN(Cc2ccccc2)CC1 | – | active: 8.91 µM |
| CC(C)N1CCC(=NNc2ccc([N+](=O)[O-])cc2S(=O)(=O)N2CCOCC2)CC1 | – | inconclusive [inhibitor, single point] |
| CC(=O)OC1CCC2(C)C(=CC=C3C2CCC2(C)C3CCC2C(C)/C=C/C(C)C(C)C)C1(C)C (stereo not given) | inactive: 7.42% | – |
| CCc1nnc(NC(=O)CSc2ccc(-c3ccc(F)cc3)nn2)s1 | inactive: -3.46% | – |
